The text below walks through data of the supplement of paper PMC12217912.

The chains are these.
B1: TEV protease; numbered along this chain (parent)
chain: MGESLFKGPRDYNPISSSICHLTNESDGHTTSLYGIGFGPFIITNKHLFRRNNGTLVVQSLHGVFKVKDTTTLQQHLVDGRDMIIIRMPKDFPPFPQKLKFREPQREERICLVTTNFQTKSMSSMVSDTSCTFPSGDGIFWKHWIQTKDGQCGSPLVSTRDGFIVGIHSASNFTNTNNYFTSVPKNFMELLTNQEAQQWVSGWRLNADSVLWGGHKVFMVKPEEPFQPVKEATQL

In this test the parent is B1. Put plainly: raw area under fraction-flipped curve 0-4 h after induction (AUC4h, not background-subtracted), DNA-recorder readout of cleavage of the substrate (dimensionless); higher = more cleavage of the substrate by the protease variant. The conditions noted are these: temperature: 34 °C; time window: 0-4 h after rhamnose induction. Here is the method: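 In vivo DNA recorder in E. coli TOP10(DE3) ΔrhaA at 34 °C. Each TEVp single-site mutant (parent TEVp 0) is paired with a single-site variant of the 7-mer TEVs (canonical ENLYFQ|S). The substrate sits between flexible linkers in a Bxb1-sfGFP-TEVs-SsrA fusion, so cleavage stabilises Bxb1 and speeds flipping of a recombination array, read by NGS. The value is the raw area under the fraction-flipped curve over 0-4 h after rhamnose induction (AUC4h), with ≥20 reads per time point. It is not background-subtracted; inactive controls average about 0.047.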

The other results are listed elsewhere or left out. Sequences were assembled here from the parent chain. Inactive controls read about 0.05.
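Also: Bxb1 expression induced with 0.2% (w/v) L-rhamnose at OD600 near 0.5, cultures sampled hourly, flipped fraction per protease–substrate barcode pair counted by paired-end Illumina sequencing.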

Regarding MGESLFKGPRDYNPISSSICHLTNESDGHTTSLYGIGFGPFIITNKHLFRRNNGTLVVQSLHGVFKVKDTTTLQQHLVDGRDMIIIRMPKDFPPFPQKLKFREGQREERICLVTTNFQTKSMSSMVSDTSCTFPSGDGIFWKHWIQTKDGQCGSPLVSTRDGFIVGIHSASNFTNTNNYFTSVPKNFMELLTNQEAQQWVSGWRLNADSVLWGGHKVFMVKPEEPFQPVKEATQL [P104G], the “area with substrate ENLAFQS” value was 0.0556, the “area with substrate ENLCFQS” value came to 0.0531, the “area with substrate ENLDFQS” value came out at 0.0622 and the “area with substrate ENLEFQS” value came out at 0.0622. Besides, the “area with substrate ENLFFQS” value came out at 0.0602, the “area with substrate ENLHFQS” value was determined as 0.0536, the “area with substrate ENLKFQS” value is 0.0589 and the “area with substrate ENLMFQS” value is 0.0425. Further, the “area with substrate ENLNFQS” value was 0.0579, the “area with substrate ENLPFQS” value was determined as 0.0596, the “area with substrate ENLQFQS” value was 0.0482 and the “area with substrate ENLRFQS” value was 0.0542. The “area with substrate ENLSFQS” value came out at 0.0552, the “area with substrate ENLVFQS” value turned out to be 0.0553 and the “area with substrate ENLWFQS” value is 0.0552.
Regarding MGESLFKGPRDYNPISSSICHLTNESDGHTTSLYGIGFGPFIITNKHLFRRNNGTLVVQSLHGVFKVKDTTTLQQHLVDGRNMIIIRMPKDFPPFPQKLKFREPQREERICLVTTNFQTKSMSSMVSDTSCTFPSGDGIFWKHWIQTKDGQCGSPLVSTRDGFIVGIHSASNFTNTNNYFTSVPKNFMELLTNQEAQQWVSGWRLNADSVLWGGHKVFMVKPEEPFQPVKEATQL [D82N], the “area with substrate ENLAFQS” value is 0.0539, the “area with substrate ENLCFQS” value is 0.0629, the “area with substrate ENLDFQS” value was 0.0657 and the “area with substrate ENLEFQS” value amounted to 0.0644. Moreover, the “area with substrate ENLFFQS” value came to 0.0587, the “area with substrate ENLHFQS” value was 0.0592, the “area with substrate ENLKFQS” value worked out at 0.0569 and the “area with substrate ENLNFQS” value came out at 0.0588. The “area with substrate ENLPFQS” value is 0.0578, the “area with substrate ENLQFQS” value is 0.0636, the “area with substrate ENLRFQS” value stood at 0.0471 and the “area with substrate ENLSFQS” value is 0.0771. The “area with substrate ENLTFQS” value came to 0.0519 and the “area with substrate ENLWFQS” value came out at 0.0838.
Take MGESLFKGPRDYNPISSSICHLTNESDGHTTSLYGIGFGPFIITNKHLFRRNNGTLVVQSLHGVFKVKDTTTLQQHLVDGRDMIIIRMPKDFPPFPQKDKFREPQREERICLVTTNFQTKSMSSMVSDTSCTFPSGDGIFWKHWIQTKDGQCGSPLVSTRDGFIVGIHSASNFTNTNNYFTSVPKNFMELLTNQEAQQWVSGWRLNADSVLWGGHKVFMVKPEEPFQPVKEATQL [L99D]: the “area with substrate ENLAFQS” value is 0.0588, the “area with substrate ENLDFQS” value amounted to 0.043, the “area with substrate ENLFFQS” value was 0.058 and the “area with substrate ENLHFQS” value was found to be 0.0531. For the same variant, the “area with substrate ENLIFQS” value was determined as 0.0496 and the “area with substrate ENLKFQS” value turned out to be 0.0678.
In the case of MGESLFKGPRDYNPISSSICHLTNESDGHTTSLYGIGFGPFIITNKHLFRRNNGTLVVQSLHGVFKVKDTTTLQQHLVDGRDMIIVRMPKDFPPFPQKLKFREPQREERICLVTTNFQTKSMSSMVSDTSCTFPSGDGIFWKHWIQTKDGQCGSPLVSTRDGFIVGIHSASNFTNTNNYFTSVPKNFMELLTNQEAQQWVSGWRLNADSVLWGGHKVFMVKPEEPFQPVKEATQL [I86V], the “area with substrate ENLAFQS” value stood at 0.068, the “area with substrate ENLDFQS” value stood at 0.0612, the “area with substrate ENLEFQS” value stood at 0.0758 and the “area with substrate ENLFFQS” value came out at 0.0904. Also, the “area with substrate ENLGFQS” value amounted to 0.0623, the “area with substrate ENLIFQS” value came out at 0.0649, the “area with substrate ENLKFQS” value was 0.074 and the “area with substrate ENLNFQS” value came out at 0.0668. Also, the “area with substrate ENLQFQS” value stood at 0.0595, the “area with substrate ENLRFQS” value is 0.0687, the “area with substrate ENLSFQS” value is 0.0574 and the “area with substrate ENLVFQS” value came out at 0.0837. The “area with substrate ENLWFQS” value is 0.0964.
With MGESLFKGPRDYNPISSSICHLTNESDGHTTSLYGIGFGPFIITNKHLFRRNNGTLVVQSLHGVFKVKDTTTLQQHLVDGRDMIIQRMPKDFPPFPQKLKFREPQREERICLVTTNFQTKSMSSMVSDTSCTFPSGDGIFWKHWIQTKDGQCGSPLVSTRDGFIVGIHSASNFTNTNNYFTSVPKNFMELLTNQEAQQWVSGWRLNADSVLWGGHKVFMVKPEEPFQPVKEATQL [I86Q], the “area with substrate ENLAFQS” value is 0.0488, the “area with substrate ENLDFQS” value was determined as 0.0499, the “area with substrate ENLFFQS” value came out at 0.0452 and the “area with substrate ENLGFQS” value is 0.068. The “area with substrate ENLHFQS” value stood at 0.0421, the “area with substrate ENLIFQS” value worked out at 0.0437, the “area with substrate ENLKFQS” value came to 0.0359 and the “area with substrate ENLLFQS” value was 0.0383. The “area with substrate ENLMFQS” value is 0.0257, the “area with substrate ENLNFQS” value is 0.0418, the “area with substrate ENLPFQS” value is 0.0518 and the “area with substrate ENLQFQS” value was 0.0326. Also, the “area with substrate ENLRFQS” value came to 0.0507.
For the variant MGESLFKGPRDYNPISSSICHLTNESDGHTTSLYGIGFGPFIITNKHLFRRNNGTLVVQSLHGVFKVKDTTTLQQHLVDGRDMGIIRMPKDFPPFPQKLKFREPQREERICLVTTNFQTKSMSSMVSDTSCTFPSGDGIFWKHWIQTKDGQCGSPLVSTRDGFIVGIHSASNFTNTNNYFTSVPKNFMELLTNQEAQQWVSGWRLNADSVLWGGHKVFMVKPEEPFQPVKEATQL [I84G], the “area with substrate ENLAFQS” value amounted to 0.0527, the “area with substrate ENLDFQS” value is 0.0493, the “area with substrate ENLFFQS” value amounted to 0.0356 and the “area with substrate ENLGFQS” value came to 0.0438. In addition, the “area with substrate ENLHFQS” value was determined as 0.0454, the “area with substrate ENLIFQS” value was 0.0778, the “area with substrate ENLKFQS” value was 0.0538 and the “area with substrate ENLLFQS” value turned out to be 0.062. The “area with substrate ENLNFQS” value worked out at 0.0235, the “area with substrate ENLPFQS” value was determined as 0.038, the “area with substrate ENLQFQS” value turned out to be 0.0424 and the “area with substrate ENLSFQS” value came out at 0.0592.
Consider MGESLFKGPRDYNPISSSICHLTNESDGHTTSLYGIGFGPFIITNKHLFRRNNGTLVVQSLHGVFKVKDTTTLQQHLVDGRDMEIIRMPKDFPPFPQKLKFREPQREERICLVTTNFQTKSMSSMVSDTSCTFPSGDGIFWKHWIQTKDGQCGSPLVSTRDGFIVGIHSASNFTNTNNYFTSVPKNFMELLTNQEAQQWVSGWRLNADSVLWGGHKVFMVKPEEPFQPVKEATQL [I84E], for which the “area with substrate ENLAFQS” value amounted to 0.0622, the “area with substrate ENLCFQS” value worked out at 0.0501, the “area with substrate ENLDFQS” value was determined as 0.0472 and the “area with substrate ENLEFQS” value worked out at 0.0542. Also, the “area with substrate ENLFFQS” value amounted to 0.0606, the “area with substrate ENLHFQS” value worked out at 0.054, the “area with substrate ENLIFQS” value stood at 0.0629 and the “area with substrate ENLKFQS” value came to 0.0601. Further, the “area with substrate ENLLFQS” value worked out at 0.0595, the “area with substrate ENLMFQS” value was determined as 0.0623, the “area with substrate ENLNFQS” value was 0.0134 and the “area with substrate ENLQFQS” value worked out at 0.0604. In addition, the “area with substrate ENLSFQS” value is 0.0533, the “area with substrate ENLTFQS” value was determined as 0.0526, the “area with substrate ENLVFQS” value stood at 0.0586 and the “area with substrate ENLWFQS” value was 0.0542.
MGESLFKGPRDYNPISSSICHLTNESDGHTTSLYGIGFGPFIITNKHLFRRNNGTLVVQSLHGVFKVKDTTTLQQHLVDGRDMIIIRMPKDFPPFPQKLKFREPRREERICLVTTNFQTKSMSSMVSDTSCTFPSGDGIFWKHWIQTKDGQCGSPLVSTRDGFIVGIHSASNFTNTNNYFTSVPKNFMELLTNQEAQQWVSGWRLNADSVLWGGHKVFMVKPEEPFQPVKEATQL [Q105R]: the “area with substrate ENLAFQS” value worked out at 0.0586, the “area with substrate ENLCFQS” value came out at 0.0629, the “area with substrate ENLDFQS” value worked out at 0.066 and the “area with substrate ENLEFQS” value was 0.0514. Moreover, the “area with substrate ENLFFQS” value worked out at 0.0822, the “area with substrate ENLGFQS” value turned out to be 0.0743, the “area with substrate ENLHFQS” value turned out to be 0.0695 and the “area with substrate ENLIFQS” value stood at 0.0948. Further, the “area with substrate ENLKFQS” value is 0.0864, the “area with substrate ENLNFQS” value was found to be 0.0681, the “area with substrate ENLPFQS” value turned out to be 0.0577 and the “area with substrate ENLRFQS” value was found to be 0.0834. Also, the “area with substrate ENLSFQS” value amounted to 0.0788, the “area with substrate ENLTFQS” value turned out to be 0.052, the “area with substrate ENLVFQS” value came to 0.0743 and the “area with substrate ENLWFQS” value is 0.0359.
In the case of MGESLFKGPRDYNPISSSICHLTNESDGHTTSLYGIGFGPFIITNKHLFRRNNGTLVVQSLHGVFKVKDTTTLQQHLVDGRDMIIIRMPKDFPPFPQKLKFREPDREERICLVTTNFQTKSMSSMVSDTSCTFPSGDGIFWKHWIQTKDGQCGSPLVSTRDGFIVGIHSASNFTNTNNYFTSVPKNFMELLTNQEAQQWVSGWRLNADSVLWGGHKVFMVKPEEPFQPVKEATQL [Q105D], the “area with substrate ENLAFQS” value was determined as 0.0662, the “area with substrate ENLCFQS” value turned out to be 0.0701, the “area with substrate ENLDFQS” value came to 0.0585 and the “area with substrate ENLEFQS” value came to 0.092. The “area with substrate ENLFFQS” value is 0.0758, the “area with substrate ENLGFQS” value stood at 0.07, the “area with substrate ENLHFQS” value turned out to be 0.124 and the “area with substrate ENLKFQS” value was 0.0735. Moreover, the “area with substrate ENLLFQS” value was 0.077, the “area with substrate ENLNFQS” value was 0.0267, the “area with substrate ENLPFQS” value turned out to be 0.0689 and the “area with substrate ENLQFQS” value came to 0.0779. Besides, the “area with substrate ENLRFQS” value turned out to be 0.0515, the “area with substrate ENLSFQS” value came to 0.0734, the “area with substrate ENLTFQS” value amounted to 0.0361 and the “area with substrate ENLVFQS” value worked out at 0.0848. Further, the “area with substrate ENLWFQS” value stood at 0.0565.
